Among all 48,000 compounds or so, about 120 (0.25%) were called active. Inconclusive results (about 4%) are left out. The call rests on the fitted dose curve; in most records, active means well fitted activation curve with a large enough effect; inconclusive means small, poorly fitted or top-dose-only effect, or another doubt; inactive means no such curve, though single readings can be large or run the other way. This is one part of the list.
experiment: Primary qHTS for Identification of Small Molecule Activators of Huntingtin-Antisense Promoter Activity; conditions: HEK293 HTT-AS promoter firefly luciferase reporter, 24 h; series mostly up to 57.5 µM; activity change, positive = activation: at the top concentration; further: nearly all actives have a fitted effect of over 55% in size
In short: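 HEK293 cells carrying firefly luciferase reporters were seeded at 2,500 per well in Opti-MEM and cultured for 24 h. They were then treated with compounds at up to 57.5 uM final for 24 h at 37 degrees C before Dual-Glo luminescence readout.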

Activity change, positive = activation, inactive:
COC(=O)c1scc(-c2ccccc2)c1S(=O)(=O)Nc1cccc(C)c1C -27.2%
CCCCOc1ccc(C(=O)N(Cc2ccc(C(C)C)cc2)C2CCS(=O)(=O)C2)cc1 (stereo unspecified) -31.4%
COc1ccc(N2CCN(C3=NS(=O)(=O)C(c4cccc(Br)c4)=C3C)CC2)cc1 -19.9%
CCOC(=O)c1ccc(NC(=O)CCc2c(C)nc3nc[nH]n3c2=O)cc1 -12.1%
Cc1cc(C)c(NC(=O)CCc2c(C)nc3c(c(C)nn3C(C)(C)C)c2C)c(C)c1 -7.81%
COc1ccc(C2=NN(CC(=O)NCCCN(C)c3ccccc3)C(=O)CC2)cc1 -16.9%
COC(=O)c1cc2sc(C)cc2n1Cc1ccc(Br)cc1F 1.44%
Cc1ccc2c(=O)cc(CSc3nnc(-c4ccccc4)n3C)[nH]c2c1C -14.1%
CC(C)c1ccc(S(=O)(=O)Nc2ccc3oc4c(c3c2)C(=O)CC(C)(C)C4)cc1 -22.7%
Cc1cc(C)c(NC(=O)c2cc3c(=O)n4ccccc4nc3n2C)c(C)c1 -30.9%
Cc1cc(-c2nc3ncccc3o2)ccc1NC(=O)c1ccc(Br)cc1 -2.94%
CCOC(=O)Cn1c(=O)n(C2CCCCC2)c2nc(-c3ccc(Cl)cc3)nc(C(N)=O)c21 -5.13%
COCCCNC(=O)c1sc2nc(C)c(C(=O)Nc3ccc(C)cc3C)c(-c3ccc(Cl)cc3)c2c1N -4.44%
Cc1c(Cl)cccc1NC(=O)c1ccc(C(=O)Nc2cccc(Cl)c2C)cc1 -1.86%
CC(=O)Nc1ccc(S(=O)(=O)N2CCC(Oc3ccc(-n4cnnn4)cc3)CC2)cc1 -33.2%
CC1CCN(C(=O)c2cnn(-c3cccc(Cl)c3)c2C2CCN(C(=O)OC(C)(C)C)CC2)CC1 -9.64%
CC(=O)N1CCc2c(sc3c2c(=O)n(-c2ccccc2C)c(=O)n3Cc2cccc(F)c2)C1 -37.5%
COc1cc(OC)cc(-n2nnc(-c3nc(-c4ccccc4Cl)no3)c2N)c1 12.1%
C[C@@H](O)[C@H]1C(=O)N2C(C(=O)O)=C(SCCN=CN)C[C@H]12 -9.23%
CN(CC1(C)CCCO1)S(=O)(=O)c1ccc(Cl)c(S(N)(=O)=O)c1 (stereo unspecified) -7.38%
COc1ccc(OCC(=O)NCC(c2ccc(Cl)cc2)N2CCCCC2)cc1 (stereo unspecified) -8.94%
CSc1ccc(CNC(=O)c2ccccc2NC(=O)c2nsc3ccccc23)cc1 20%
CC(=O)N1c2ccccc2C(=O)C1N1CCN(c2ccccc2)CC1 (stereo unspecified) -11.7%
COc1ccc(NC(=O)c2c(-c3ccccc3)c(-c3ccccc3)nn(C)c2=O)c(OC)c1 -15.9%
COc1ccc(-n2cc(-c3ccccc3)nc2SCC(=O)Nc2ccccc2)cc1Cl -11.4%
CCc1ccc(S(=O)(=O)c2nnn3c2nc(N2CCCC2)c2sccc23)cc1 -5.83%
COc1ccc(NC(=O)COCc2cc(-c3cccs3)on2)cc1 2.88%
Cc1ccccc1C1C=C(c2ccc(Cl)cc2)Nc2nnnn21 (stereo unspecified) -17.4%
CN1C(=O)Cc2cc(S(=O)(=O)CCC(=O)N3CCN(c4ccccc4F)CC3)ccc21 -11.7%
COc1ccc(-c2cc(C(F)(F)F)n3nc(C(=O)Nc4cccc(Cl)c4C)cc3n2)cc1 -3.12% [at 11.5 µM, percent change from vehicle, -100% = no light]
CCOC(=O)c1ccc(NC(=O)Cn2cnc(S(=O)(=O)N3CCCC3)c2)cc1 -18.4%
COc1ccc(-n2nc3c(N4CCCC(C(=O)NCCc5ccc(C)cc5)C4)nnc(C)c3c2C)cc1 (stereo unspecified) -23.7%
Cc1ccc2oc3c(c(=O)c2c1)C(c1ccc(F)cc1)N(c1nc(C)c(C)s1)C3=O (stereo unspecified) -1.61%
COCCNC(=O)C(=O)NCC(c1cccnc1)N1CCN(c2ccccc2F)CC1 (stereo unspecified) -4.45%
COc1ccc(C2CC(=O)Nc3c2c(=O)[nH]c2nc4ccccc4n32)cc1OC (stereo unspecified) -14%
COc1ccccc1Nc1nc2ccc(Cl)cc2nc1-n1nc(C)cc1C 5.42%
COc1ccc(NC(=O)c2nc3nc(C)cc(C(F)F)n3n2)c(C)c1 8.24%
CCOC(=O)c1ccc(NC(=O)CC2C(=O)N(c3ccc(F)cc3)C(=O)N2Cc2ccc3c(c2)OCO3)cc1 (stereo unspecified) -28.4%
CCOC(=O)c1cccc(NC(=O)C2CCN(S(=O)(=O)c3cn(C)cn3)CC2)c1 -2.63%
Cc1ccc(C)c(NS(=O)(=O)c2cc3c(cc2Cl)NC(=O)CO3)c1 -24.5%
CCc1ccc(NC(=O)N2CC(C)Oc3ccc(C)cc32)cc1 (stereo unspecified) -6.54%
CC(C)(C)OC(=O)N1CCC(c2c(C(=O)NCCN3CCC(Cc4ccccc4)CC3)cnn2-c2ccccc2)CC1 -30.1%
COCCCNc1ncnc2c1cnn2-c1ccc(F)cc1 21.6%
COc1cc2ccccc2cc1C(=O)Nc1ccc2oc(-c3cccc(Cl)c3Cl)nc2c1 3.18%
COc1ccc(C(=O)N2CCc3cc(OC)c(OC)cc3C2COc2ccc3c(C)cc(=O)oc3c2)c(OC)c1 (stereo unspecified) 4.65%
Cc1cc(C)n(-c2nc3ccccc3nc2Nc2cc(C(=O)O)ccc2C)n1 -2.73%
Cc1ccc(CN2CCN(CC(=O)NCc3ccccc3Cl)C2=O)cc1 -9.12%
COc1cc(NS(=O)(=O)c2ccc3c(c2)CCCN3C(C)=O)cc(OC)c1OC -66.5%
Cc1cc(C)cc(-n2nnc(-c3nc(-c4ccccc4F)no3)c2C)c1 22.7%
Cc1ccc(NC(=O)C(=O)NCC(c2cccnc2)N2CCc3ccccc32)cc1Cl (stereo unspecified) -22.8%
CCOc1ccccc1NC(=O)CN1C(=O)C2(SCC(=O)N2c2cccc(F)c2)c2ccccc21 (stereo unspecified) -11.1%
Cc1c(Cl)cccc1NC(=O)CCn1nc(C)c2c(C)n(-c3ccccc3)nc2c1=O 8.14%
O=C(Nc1ccc(F)c(Cl)c1)c1cc(S(=O)(=O)N2CCCc3ccccc32)ccc1F -18.6%
COc1ccc(S(=O)(=O)N(CC(=O)NCc2ccc(C)cc2)c2ccc(Cl)cc2)cc1 -18.3%
CCOc1ccc(C(=O)N2CCCCC2CCN2CCOCC2)cc1 (stereo unspecified) -8.02%
COc1ccc(NC(=O)c2sc3nc(C)c(C(=O)Nc4ccc(Cl)cc4)c(-c4ccc(Br)cc4)c3c2N)cc1 -33.5%
CCOc1ccc(OCC)c(NC(=O)CCc2c(C)nc3c(c2C)c(=O)n(C)c(=O)n3C)c1 -10.5%
O=C(c1ccc2c(c1)N(Cc1ccccc1)C(=O)c1ccccc1S2(=O)=O)N1CCN(c2ccccn2)CC1 -1.2%
CCSc1ncc(Cl)c(C(=O)Nc2c(C(=O)Nc3ccc(Cl)cc3)oc3ccccc23)n1 0.969%
CCOc1ccccc1CNC(=O)c1cc(-c2ccc(OC)cc2)nc2ccc(C(C)C)cc12 -1.26%
COc1cc(C2c3c(oc4ccccc4c3=O)C(=O)N2c2nnc(C(C)C)s2)cc(OC)c1OC (stereo unspecified) -5.2%
Cc1ccc(Cn2ccn(Cc3ccccc3C)c(=O)c2=O)cc1 -9%
COc1ccc(/C=C/c2noc(-c3ccccc3O)n2)cc1OC 4.1%
COC(=O)c1ccccc1NC(=O)Cn1c(=O)n(-c2ccc(Cl)cc2)c(=O)c2c(C)c(C)sc21 28.7%
CCn1ccc2cc(S(=O)(=O)N3CCC(C(=O)NCCc4ccc(C)cc4)CC3)ccc21 -18.6%
COc1ccc(NC(=O)CSCc2cnn(-c3ccccc3)c2-n2cccc2)cc1 -18.6%
CCC(C)NC(=O)c1ccc2nc(Cc3ccc(OC)cc3)oc2c1 (stereo unspecified) 5.6%
COc1cc(OC)cc(C(=O)NCC(c2cccs2)S(=O)(=O)c2ccc(F)c(C)c2)c1 (stereo unspecified) 5.98%
COc1cc(C(=O)N2CCN(CCc3ccccn3)CC2)cc(OC)c1OC 3.85% [at 11.5 µM, percent change from vehicle, -100% = no light]
COc1ccccc1NC(=O)CN1C(=O)C2(SCC(=O)N2c2ccc(C)c(C)c2)c2ccccc21 (stereo unspecified) -56.4%
Cc1ccc(N(CC(=O)Nc2cc(C)cc(C)c2)S(=O)(=O)c2cccc3nonc23)cc1 -5.74%
CC1=C(c2ccc(C)cc2)S(=O)(=O)N(Cc2ccc(C(=O)Nc3ccc(F)cc3C)cc2)C1=O -39.2%
NS(=O)(=O)c1ccc(NC(=O)c2ccc3c(c2)CCN3S(=O)(=O)c2ccccc2)cc1 -29.8%
COC(=O)C(CCSC)NC(=O)c1c(C)oc2ncn(CC(C)C)c(=O)c12 (stereo unspecified) -0.251%
Cc1ccc(NC(=O)C(=O)NCC(c2cccnc2)N2CCN(C)CC2)cc1F (stereo unspecified) -14.9%
Cc1c(Cl)cccc1NC(=O)CSc1ncccc1C(=O)Oc1ccccc1Cl -9.58%
CCOc1ccc(NC(=O)Cn2ccn(-c3ccc(F)c(F)c3)c(=O)c2=O)cc1 -4.39%
COc1ccc(CNC(=O)c2cccc(-n3cnc4cccnc43)c2C)cc1 -7.83%
COc1cccc(C(=O)Nc2ccc(-c3cn4cccnc4n3)cc2)c1OC 5.72%
CCOCCSc1c(C)cnc2c1c(=O)n(C)c(=O)n2C -31.3%
Cc1ccc(N2C(=O)c3[nH]nc(-c4ccc(Cl)cc4)c3C2c2ccc(F)cc2)cc1 (stereo unspecified) -60.3%
CC(C)CCNC(=O)C1CCC(Cn2c(=O)c3sccc3n(CC(=O)NC(C)C)c2=O)CC1 (stereo unspecified) -13.9%
O=C(Cn1c(=O)n(-c2ccc(F)c(Cl)c2)c(=O)c2sc3ccccc3c21)NC1CCCC1 -0.559%
Cc1ccc(-n2c(=O)c3oc4ccccc4c3n(Cc3ccccc3F)c2=O)cc1C -18.1%
COc1ccc(CNC(=O)c2cc3c(s2)-c2ccccc2OC3)cc1 -15.5%
CCC(C)NC(=O)C(=O)Nc1c2c(nn1-c1ccccc1)CS(=O)(=O)C2 (stereo unspecified) -15.1%
COc1ccc(NC(=O)CSc2nc3c(oc4ccccc43)c(=O)n2-c2ccc(C)c(C)c2)cc1 -16.8%
CCOC(=O)c1c(NC(C)=O)c2c3c(sc2n1Cc1nc(-c2ccccc2C)oc1C)CCCC3 -4.74%
O=C(Nc1nc2ccc(F)cc2s1)c1nc(S(=O)(=O)Cc2ccccc2)ncc1Cl -46.1%
O=C(c1ccc2c(c1)N(Cc1ccc(Cl)cc1)C(=O)c1ccccc1S2(=O)=O)N1CCCCC1 -30.2%
CC1CN(C(=O)CCC(=O)NCc2ccc(F)cc2)c2cc(Cl)ccc2O1 (stereo unspecified) 5.43%
